42 sequences from PMC7819943, “Rice protein-binding microarrays: a tool to detect cis-acting elements near promoter regions in rice” can be followed below.

Some of the results follow.

For the test, the target named is T1, OsWOX13 (Oryza sativa, UniProt Q5QMM3 1-267).
T1 sequence: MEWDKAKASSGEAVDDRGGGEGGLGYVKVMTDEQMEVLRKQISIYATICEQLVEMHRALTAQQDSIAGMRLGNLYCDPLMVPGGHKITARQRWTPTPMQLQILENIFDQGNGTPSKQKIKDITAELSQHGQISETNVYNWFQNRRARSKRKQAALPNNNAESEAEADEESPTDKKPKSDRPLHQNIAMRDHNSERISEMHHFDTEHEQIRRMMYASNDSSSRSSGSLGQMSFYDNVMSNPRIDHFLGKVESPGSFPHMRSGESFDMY
The experiment in a line: protein-binding microarray (RPBM); PBS, 2% BSA, 51.3 ng/ul salmon testes DNA, 50 uM zinc acetate, 200 nM TF, 25 C, 1 h; high values mean tight binding. The settings on record: protein: recombinant; tags: N-terminal polyhistidine and DsRed monomer fusion (pET32a); label: CyDye5-dUTP incorporated in the synthesized complementary strand; 3' TTTTT single-stranded linker to array surface; dsDNA, one strand shown. In a few lines:
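Per-feature fluorescence intensity (arbitrary units), read on an Axon 4000B scanner, is the binding signal. Transcription factors carrying an N-terminal polyhistidine tag and DsRed fusion were expressed in E. coli BL21-CodonPlus and purified on Ni–NTA. A custom Agilent array, made double-stranded by primer extension with Cy5-dUTP and blocked with 2% BSA, was incubated with 200 nM protein in PBS, 2% BSA, salmon testes DNA and 50 µM zinc acetate at 25 °C for 1 h and then washed.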
In the case of “GGACCATCATCAGCCATCTTGATTTGTTGCCACCAGCCTGCGGAGTCACCTAGTGCAG”, the binding signal is 7010 fluorescence intensity (a.u.).
As for “ATCAAAATTTAAAATTTAAAATTTAGCATTGCTTTATATGCGGAGTCACCTAGTGCAG”, the figure is 13500 fluorescence intensity (a.u.); as for “AACAAATTGGCTAGCTAGAATTGAAGCAGGTACTCCTAATCGGAGTCACCTAGTGCAG”, 13300 fluorescence intensity (a.u.).
Next, “ATGCAAATTATTACGCTCTTTATCTATTTCTAATACATTCCGGAGTCACCTAGTGCAG”: 4500 fluorescence intensity (a.u.); “TCCTGATTATATATATTGATGGATGGCAAGAGAAGAGACGCGGAGTCACCTAGTGCAG”: 48400 fluorescence intensity (a.u.); “AAATTTAATTAATTATGTGTTAAACACTGCTTCGTTTTATCGGAGTCACCTAGTGCAG”: 27300 fluorescence intensity (a.u.).
As to “ACATTATCCAATTAAATCCATGGCTTGATACCTTCTTCTGCGGAGTCACCTAGTGCAG”, the binding signal is 3610 fluorescence intensity (a.u.).
As for “GGATGATTTTCCGTGTTTTAATTAAGAAAACCTGATACTACGGAGTCACCTAGTGCAG”, the figure is 14200 fluorescence intensity (a.u.).
Take “AGAATTAATTGATGGTAATTAAGTCGGCAGCATGTATGACCGGAGTCACCTAGTGCAG”: the binding signal was 42800 fluorescence intensity (a.u.).
As for “ATTCATATTCCACTAATTGAATCACGATTTTAAAATTTCCCGGAGTCACCTAGTGCAG”, the binding signal is 11600 fluorescence intensity (a.u.).
For “TTAATTACCTATCTTAGAGTGCCATCTAGTTCCTCCTACCCGGAGTCACCTAGTGCAG”, the binding signal was 6630 fluorescence intensity (a.u.).
As for “TTAAATTTAATGTTAGTTCAAACATCACTATACATACTTACGGAGTCACCTAGTGCAG”, the figure is 4830 fluorescence intensity (a.u.); as for “GCCTGCAATTTGCCGGTGTCAATTTAGCTGTCACTCTCCACGGAGTCACCTAGTGCAG”, 4060 fluorescence intensity (a.u.).
As for “GTGGAGTGATATATTACATATTAATTTATCTTCCTCTAATCGGAGTCACCTAGTGCAG”, the figure is 7040 fluorescence intensity (a.u.).
Next, “ACACAATCACATTCACATTTGGCATCCTCAAATTCCACCCCGGAGTCACCTAGTGCAG”: 5670 fluorescence intensity (a.u.).
For “CTGCAATTGACCGATTGCCATTTCACAACGGTAGCGACAACGGAGTCACCTAGTGCAG”, the binding signal was 11500 fluorescence intensity (a.u.).
On to “TATCAATTAGCTGAATGTTTCAGGTTTCAGCTGCAGAGGCCGGAGTCACCTAGTGCAG”, for which the binding signal was 28400 fluorescence intensity (a.u.).
As for “GTATAATTGGCATGTGGGCCTACGATTTCTATTATTTCCACGGAGTCACCTAGTGCAG”, the figure is 31400 fluorescence intensity (a.u.); as for “ATGATTCAAATTTACTTTGTAAATCTACTATTGTACTACCCGGAGTCACCTAGTGCAG”, 5710 fluorescence intensity (a.u.).
Next, “TTGATTTAGGAAAGATGATTAGGATTTAATTAATGAGAGTCGGAGTCACCTAGTGCAG”: 25900 fluorescence intensity (a.u.).
On to “CATAATTAAAATACTTAAAATATGTGCTCGTAATTATTTACGGAGTCACCTAGTGCAG”, for which the binding signal was 6000 fluorescence intensity (a.u.).
As for “TTGTATGAAATATGTAATTTGTATATTTGCAAATGACATTCGGAGTCACCTAGTGCAG”, the figure is 4850 fluorescence intensity (a.u.).
Take “CAGATGTAATCAAAACTAGGATGATGAACCAGGGCAAGGACGGAGTCACCTAGTGCAG”: the binding signal is 4430 fluorescence intensity (a.u.).
Next, “ATAATAATTTTAAAATAAGATGATGAGTCAAACGTTGTATCGGAGTCACCTAGTGCAG”: 10600 fluorescence intensity (a.u.); “AAAATTGTCACACAATCTATAATTAGTGTGATAGTATTATCGGAGTCACCTAGTGCAG”: 3810 fluorescence intensity (a.u.); “CACTAGTACTCCACTACACATGATTGAGAGTTTTCTGAACCGGAGTCACCTAGTGCAG”: 6700 fluorescence intensity (a.u.).
Next, “TCCATATCAAATTGACATCCAATAAATCGAATTGGAACTTCGGAGTCACCTAGTGCAG”: 13800 fluorescence intensity (a.u.).
With “ATTTAATTTGATTAACATGAATTTAATAATTTATTAACACCGGAGTCACCTAGTGCAG”, the binding signal is 45900 fluorescence intensity (a.u.).
As for “GGTAAATTTGGATAAAACAAAGATGCCCATCTTGAGCCGGCGGAGTCACCTAGTGCAG”, the figure is 7560 fluorescence intensity (a.u.).
As for “GTGATGATTGGGCAGTGGAGTGGGGCAGGTGTGGGCGGACCGGAGTCACCTAGTGCAG”, the figure is 44700 fluorescence intensity (a.u.); as for “GGAAACGTATAATTAGTTCCTTTTCTTTTGTAATCAAATTCGGAGTCACCTAGTGCAG”, 3320 fluorescence intensity (a.u.).
As for “TCGTTGACATTAAAGATTAGCAAAAGCTAAGCTACAAACTCGGAGTCACCTAGTGCAG”, the figure is 6730 fluorescence intensity (a.u.).
As to “TCTGAGATTTATTGATTAGATTATAACGTAATCGTTGTTACGGAGTCACCTAGTGCAG”, the binding signal is 29300 fluorescence intensity (a.u.).
In the case of “AATATATTCAATGTTAAATTTAACAAAACTATTTGTGCTACGGAGTCACCTAGTGCAG”, the binding signal is 3660 fluorescence intensity (a.u.).
As to “ATATAATTAATTAAAATATTAATTATTATTTGTAAAATGGCGGAGTCACCTAGTGCAG”, the binding signal was 65500 fluorescence intensity (a.u.).
On to “AGGTGATCATGCAAGGTAGTCAACAGTGTACTGCTAGTTACGGAGTCACCTAGTGCAG”, for which the binding signal was 53800 fluorescence intensity (a.u.).
As to “TTTACAAAATTATAATGACATGGTTCCAAATTACCCTTAACGGAGTCACCTAGTGCAG”, the binding signal was 6850 fluorescence intensity (a.u.).
As for “TATACCTAATTAACTATAAAACACAACAAACAAGGCATATCGGAGTCACCTAGTGCAG”, the figure is 10200 fluorescence intensity (a.u.); as for “CCCGACCTGGATTGACTACTTTGCCTCCAATTAACCCATTCGGAGTCACCTAGTGCAG”, 13100 fluorescence intensity (a.u.); as for “GGTAATTATTATTTTAGCGATGAGTGATATATATAGGGATCGGAGTCACCTAGTGCAG”, 25800 fluorescence intensity (a.u.).
For “GCGTAATAGAAAGAGAGATCTCCCGTCTCGTCCGTCGTCTCGGAGTCACCTAGTGCAG”, the binding signal was 5560 fluorescence intensity (a.u.).
As to “CCAACAAATTTTGTGTGACTACAACCTGCCTACAACCTGTCGGAGTCACCTAGTGCAG”, the binding signal is 5370 fluorescence intensity (a.u.).
